Assay results: patent US20240184137A1, “CONTACT LENSES AND METHODS OF MAKING CONTACT LENSES” (University of Florida Research Foundation, Inc., priority 2021, published 2024)

Legend:
[1] = in vivo; cited from earlier work
[2] = Stability of vitamin E nanobarriers in lenses, aqueous solubility of vitamin E; type: physicochemical
[3] = In vitro triumvirate drug release from vitamin-E modified ACUVUE OASYS lenses in PBS; type: physicochemical
[4] = assumed to be equal to that for timolol; cited from earlier work
[5] = cited from earlier work
[6] = Dexamethasone phosphate release from ACUVUE OASYS lenses loaded with 30% VE; type: physicochemical; details: 30% VE lenses soaked in 20 mg/ml
Excerpt: The physician will have the option of replacing the lens with another lens after 7 days. […] An alternative is to replace levofloxacin with moxifloxacin which is a commonly used 4th generation fluoroquinolone. Additionally, bromfenac will be incorporated as a replacement for ketorolac. Thus, the triple drug combination will be Moxifloxacin, Dexamethasone, Bromfenac, or Moxifloxacin, Dexamethasone Phosphate, Bromfenac, or Moxifloxacin, Dexamethasone, Ketorolac or Moxifloxacin, Dexamethasone Phosphate, Ketorolac. Any of these drugs can be substituted with drugs in the same general class. Additionally, any one of two of these drugs could be loaded instead of all three. For example, just a steroid and NSAID could be loaded and the antibiotic could be administered as an intracameral injection. […] For example, moxifloxacin hydrochloride, ketorolac tromethamine, bromfenac sodium.

[7] = type: physicochemical
Description: FIG. 6 illustrates a graph regarding the delivery of bromfenac by loading the drug in Acuvuce Oasys with 20% vitamin E lenses in a 3 mL solution of bromfenac at 0.5, 1, 2 and 10 mg/mL.
Delivery of bromfenac was tested by loading the drug in Acuvuce Oasys with 20% vitamin E lenses in a 3 mL solution of bromfenac at 0.5, 1, 2 and 10 mg/mL (as shown in FIG. 6). […] The release duration can be increased to about 7-days by increasing vitamin E loading in lens to about 30% because the release duration increases as square of the vitamin E loading. The high partition coefficient means that a concentration of just 1 mg/mL in loading solution will be adequate to load about 350 μg of drug.

Compound: COc1c(N2C[C@@H]3CCCN[C@@H]3C2)c(F)cc2c(=O)c(C(=O)O)cn(C3CC3)c12 [moxifloxacin]
Mean aqueous concentration [1]: 1.745 µg/mL

Compound: C[C@@H]1C[C@H]2[C@@H]3CCC4=CC(=O)C=C[C@]4(C)[C@@]3(F)[C@@H](O)C[C@]2(C)[C@@]1(O)C(=O)CO [dexamethasone]
Corneal permeability [4]: 12 ×10⁻⁶ cm/s

Compound: Cc1ccc(=O)n(-c2ccccc2)c1 [pirfenidone]
Healing of cornea after an alkaline burn ([5]; contact lenses loaded with drug): can lead to healing of cornea
Aqueous humor levels, delivery via contacts compared to eye drops ([5]; dose 2.5-fold lower in contacts): much higher

Compound: C[C@@H]1C[C@H]2[C@@H]3CCC4=CC(=O)C=C[C@]4(C)[C@@]3(F)[C@@H](O)C[C@]2(C)[C@@]1(O)C(=O)COP(=O)(O)O [DXP, dexamethasone sodium phosphate]
Expected amount of drug released [6]: about 750 μg
Expected release time [6]: 40 days

Results, then the compound that gave them:

Solubility in aqueous solutions [2]: negligible
Compound: Cc1c(C)c2c(c(C)c1O)CCC(C)(CCCC(C)CCCC(C)CCCC(C)C)O2 (racemic) [vitamin E, DL-alpha tocopherol]

Release duration ([3]; ACUVUE OASYS lenses with 30% vitamin E, release in PBS): 200 h
Release duration ([3]; control lens without vitamin E): a few hours
Compound: O=C(c1ccccc1)c1ccc2n1CCC2C(=O)O (stereo not shown) [ketorolac]

Partition coefficient (ratio of drug concentration in lens and solution) [7]: 11.65±1.28
Amount of drug loaded ([7]; 1 mg/mL in loading solution): about 350 μg
Release duration ([7]; Acuvue Oasys with 20% vitamin E, 3 mL buffer): about 3 days
Release duration on increasing vitamin E loading ([7]; vitamin E loading about 30%): about 7 days
Compound: Nc1c(CC(=O)O)cccc1C(=O)c1ccc(Br)cc1 [bromfenac]

Like-named read-outs stand apart in the source and are kept apart here. Each block holds one compound with its values, some of them ahead of it.
